Experimental data reported in the supplement of paper PMC11417369.
± gives the standard deviation of the averaged measurements. Some of the results follow.

system: PfAP2-LT AP2 domain (GST-tagged); experiment: gcPBM binding intensity (ln(normalized median fluorescence intensity)); higher = stronger DNA binding
Summary of the method: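 Using an Agilent 4 × 180k array, primer-extended double-stranded 36-bp intergenic genomic probes and negative controls were exposed for 1 h to GST-fused P. falciparum DNA-binding domains expressed in E. coli. Binding was carried out in 1× PBS with 1% milk, 0.2 mg/ml BSA, 0.5% salmon testes DNA and 0.03% Triton X-100, and protein was detected with Alexa488 anti-GST antibody and a 488 nm scan. Binding intensity is the highest Masliner-normalised natural-log median intensity across replicate spots of either probe orientation.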

Sequence	gcPBM binding intensity (ln)
ATTACAAAAATATATAAACACACAAATATAATATAT [CACACA_site8962]	9.02 ± 0.44
ATAAAATAAAACAACACACACGAATGTATAAATATA [CACACA_site4643]	9.53 ± 0.36
AATAAAATACAAAAATGTACAAATATAATATACATA [XGTACX_site279]	8.9 ± 0.49
TAATAATATAAATATGCACACAAATTATTACCCAAA [CACACA_site8805]	8.99 ± 0.4
TATATATATAAATGAATGCACTTTAGAAAAAAGTAC	8.62 ± 0.46
ATATATATTATAATAACACACATATATTATATTATA [CACACA_site406]	8.72 ± 0.35
TAGATATATAGAATTACACACTTTTCTATAATATGA [CACACA_site6475]	8.51 ± 0.38
ACATACTCAAATAGCACACACATAAATAAAAATGTA [CACACA_site3864]	9.4 ± 0.44
TAATATAAAATGATAAATGAATGTGATCATTTTATA [CACACA_negctrl_site1034]	8.63 ± 0.45
AGATATTTTTCTTAAGTACACACTAAATAGAAACTA [CACACA_site44]	8.48 ± 0.46
AGTCTGAATAAAATTACACACATATACCTATAAATA [CACACA_site6929]	9.01 ± 0.45
TTTTTTTTTTTCAGTTGTACATTGGGAAAATATATA [XGTACX_site4416]	8.4 ± 0.52
TTTAAAAAAATGAAATAAAAAAAAAATAAAATAAAA [XGTACX_negctrl_site316]	8.37 ± 0.54
ATATATATAATTTGTACACACAAATATGCATATATA [CACACA_site3432]	9.01 ± 0.31
AAATAATTTATATATTGTACAAATATTAAATGCGAA [XGTACX_site3390]	8.71 ± 0.51
GGGTTGATATATATTTGTACATATTATTATTTATTA [XGTACX_site7116]	9.11 ± 0.35
ATATATATATATTATGTGCGCATATACCATTTTAAT [GTGCAC_site9575]	9.4 ± 0.18
TTTATTTTAACTTGTTCACACATTTGAATAAATAAA [CACACA_site5064]	8.46 ± 0.39
AAAAATATATAAACACGTACACACACATATATGTAT [XGTACX_site7436]	9.46 ± 0.2

Sequence	gcPBM binding intensity (ln)
ACATTTATATATAATTGTACCCTACATTCTCTTTTT [XGTACX_site189]	8.9 ± 0.49
GAAAAAAAAAAAAAAAGAAAATTCATATTTTTAATA [XGTACX_negctrl_site513]	7.99 ± 0.72
TACCAAAAAAAAAAAAAAAATTAAATAAATATGAAA [TGCATGCA_negctrl_site383]	8.25 ± 0.61
TAAAAGAATAAAAGTAGTACTTTTTTTTATATTAGA [XGTACX_site368]	8.29 ± 0.49
AAAAAGTGACTCCTTACACACTTTACATAATTTAGT [CACACA_site4606]	8.99 ± 0.41
ATATTTTTATATTAGTGTACTTATTATAATGTATAG [XGTACX_site8185]	8.82 ± 0.27
TCTTTTTTTTTTTATTGTACAAGAAAAGGAAAAAAT [XGTACX_site3717]	8.05 ± 0.31
ATATAATATATATGGTGTACATTTTTTAGTGCTATT [XGTACX_site1662]	8.85 ± 0.49
AAGTATTATTTTTATGCATGTGAAGTGCAAAATAAA [TGCATGCA_site198]	8.58 ± 0.42
AGTACATTTTTTTTAATAGGAAAAAAAATATTTATT [TGCATGCA_negctrl_site575]	8.29 ± 0.43
ATAATATGTAATATTACACACAATTCATCATTTTTT [CACACA_site3159]	8.99 ± 0.36
ATATACACCGTTGAATGTACATAAATAATATTAATA [XGTACX_site2893]	9.01 ± 0.54
AACCATTAATTCTCTACACACTTTTATTTTATTTAG [CACACA_site1769]	8.93 ± 0.46
ACTTTATATTTTGAACGTACAAAAAAAAAATTATGT [XGTACX_site5588]	8.53 ± 0.4
GCACATATATACATACATACATACATACATATGTAT [TGCATGCA_negctrl_site95]	9.31 ± 0.43
ATCATAAAAGTATACACACATACATACATATGTACA [CACACA_site2641]	9.15 ± 0.38
ATAAAGATTTTCCAAGCATGCCACATAGTGAGATAC [TGCATGCA_site594]	8.85 ± 0.47
TTATATATTTTTACCATACACACATATAATAAATAT [CACACA_site3721]	8.85 ± 0.54
TAAATATATATATATGTACACACTCCAATACATATA [CACACA_site8858]	8.93 ± 0.39

Sequence	gcPBM binding intensity (ln)
TATATATATATTATATGTACATATTCCTATATATAC [XGTACX_site7071]	9.04 ± 0.4
TATATATATATTTATACACACATTAGTGTAGACATG [CACACA_site8964]	9.04 ± 0.26
TCCTTATAAATATATATATAATATATATATATATAT [CACACA_negctrl_site293]	8.84 ± 0.18
TTGTTCTAATATATTGCACACGTAAAAATATAGGTA [CACACA_site8195]	8.95 ± 0.41
TTGGTTATACAACACATGCACACGTAAATAAATATT [CACACA_site3841]	9.1 ± 0.35
AAGTATGCATTATATACACACATACATTTATATATT [CACACA_site4242]	9.09 ± 0.35
ATTATGTTAAAAAGGCGTACATGTTATAAGGTCCTA [XGTACX_site344]	8.8 ± 0.31
TATATATAAAGAGAAACATGCAAAATGTGAATATTC [TGCATGCA_site377]	9.05 ± 0.28
ATATATCATAATAAAAGTACTTATATATTTTATATA [XGTACX_site560]	8.47 ± 0.42
AAAATAAATAAATATACACACCATATATATATTTTT [CACACA_site5573]	8.89 ± 0.4
TACAAAAAAAGATGATGTACAATGAAAAATAAGAAA [XGTACX_site5840]	8.82 ± 0.57
ATAAATAATTGTAGTTGTACATGATATTTTTATTAC [XGTACX_site550]	8.75 ± 0.27
AAAAAAAAAAAAAACACACACACAAATACAAATACA [CACACA_site414]	9.9 ± 0.36
AAATGGACCTAATTATCACACATTATACTCGTTTTC [CACACA_site5996]	9.03 ± 0.41
TATAAGTTTATATATACACACATATATATATATATA [CACACA_site3274]	9.65 ± 0.34
TTGTTAAAATTATTAAGTTAAATATCGATTTGTAAA [XGTACX_negctrl_site429]	8.19 ± 0.45
ATATTTATAACTTGTACACACAAATATGCATATATA [CACACA_site7583]	9.18 ± 0.39
TTATTATTCCCTCATTTTGTTACCATTATTTCAATT [CACACA_negctrl_site1023]	8.88 ± 0.54
